Test results reported in the supplement of paper PMC9446081.
The whole screen tested about 39,000 compounds, of which about 220 (0.56%) showed activity. This is one part of the list.
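Also: static incubation at 37 °C against the wild-type strain, values averaged over two biological replicates.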

The molecules below were run on Escherichia coli K-12 BW25113 (assay: relative growth (OD600 normalised to plate interquartile mean) (fraction); higher = less growth inhibition, active = 0.2 or less). Conditions: 50 µM; LB; incubation time: overnight (16-24 h).
For `C[C@@H]1CN([C@@H](C)CO)S(=O)(=O)c2ccc(C#CCC3CCCC3)cc2O[C@@H]1CN(C)C(=O)c1cnccn1`, the relative growth was inactive: 1.04.
With `COc1ccc(CN(C)C[C@@H]2OCCCC[C@@H](C)Oc3ccc(NC(=O)Cc4ccccc4)cc3C(=O)N([C@@H](C)CO)C[C@H]2C)cc1` the relative growth was inactive: 0.998.
In the case of `NCCNCCNCCN`, the relative growth is reported as inactive: 1.01.
In the case of `COc1ccc(C#Cc2ccc([C@@H]3[C@H](CO)N4CCCCN(S(=O)(=O)c5cn(C)cn5)C[C@@H]34)cc2)cc1`, the relative growth is reported as inactive: 0.944.
For `CC(C)CSc1ncnc2scc(-c3ccccc3)c12`, the relative growth was inactive: 0.989.
`C[C@H](CO)N1C[C@H](C)[C@H](CN(C)C(=O)Nc2ccc3c(c2)OCCO3)OCc2cn(nn2)CCCC1=O` was tested, and the relative growth was inactive: 1.02.
For `O=C(Cn1cnnn1)NS(=O)(=O)c1ccccc1`, the relative growth was inactive: 0.973.
For `C[C@H]1CCCCO[C@H](CN(C)CC2CCCCC2)[C@@H](C)CN([C@@H](C)CO)C(=O)c2cc(NC(=O)c3ccccc3)ccc2O1`, the relative growth was inactive: 1.01.
In the case of `C[C@@H]1CN([C@@H](C)CO)C(=O)Cc2cc(NC(=O)NC3CCCCC3)ccc2O[C@H]1CN(C)Cc1ccc(Cl)c(Cl)c1`, the relative growth is reported as inactive: 1.
With `O=c1c(O)c(-c2ccccc2)oc2cccc(O)c12` the relative growth was inactive: 0.976.
`O[C@@H]1[C@@H](O)[C@H](O)OC[C@H]1O` was tested, and the relative growth was inactive: 0.985.
With `C[C@@H]1CN([C@H](C)CO)C(=O)c2cccc(NS(C)(=O)=O)c2O[C@@H]1CN(C)S(=O)(=O)c1ccccc1` the relative growth was inactive: 0.982.
In the case of `COCC(=O)N(C)C[C@H]1Oc2cc(C#CC(C)(C)O)ccc2S(=O)(=O)N([C@H](C)CO)C[C@H]1C`, the relative growth is reported as inactive: 0.996.
For `O=C(O)[C@H]1NC(=O)[C@@H]1Cc1ccccc1`, the relative growth was inactive: 1.
With `COc1ccc(NC(=O)N(C)C[C@H]2Oc3ncc(C#CCN(C)C)cc3C(=O)N([C@H](C)CO)C[C@H]2C)cc1` the relative growth was inactive: 1.
For `COc1ccc(S(=O)(=O)Nc2cccc3c2O[C@H](CN(C)S(=O)(=O)c2cccs2)[C@H](C)CN([C@@H](C)CO)C3=O)cc1`, the relative growth was inactive: 1.05.
`Cc1noc(C)c1NC(=O)N(C)C[C@@H]1Oc2ccc(NC(=O)CCCN(C)C)cc2C(=O)N([C@@H](C)CO)C[C@@H]1C` was tested, and the relative growth was inactive: 1.01.
For `C[C@H](CO)N1C[C@H](C)[C@H](CN(C)C(=O)Nc2ccccc2)Oc2c(NS(C)(=O)=O)cccc2C1=O`, the relative growth was inactive: 0.989.
For `CCS(=O)(=O)NCC[C@@H]1CC[C@@H](NS(=O)(=O)c2ccccc2C)[C@H](CO)O1`, the relative growth was inactive: 0.992.
`Cc1noc(C)c1NC(=O)Nc1ccc2c(c1)C(=O)N([C@@H](C)CO)C[C@H](C)[C@@H](CN(C)Cc1ccccc1)OCCCC[C@@H](C)O2` was tested, and the relative growth was inactive: 0.985.
